Our source for the cAMP reporter score and surface expression score values is the GPR68 mutational scans of Howard et al. (2025).

To fix the notation:
B1: GPR68, Q15743 (parent)
chain: MGNITADNSSMSCTIDHTIHQTLAPVVYVTVLVVGFPANCLSLYFGYLQIKARNELGVYLCNLTVADLFYICSLPFWLQYVLQHDNWSHGDLSCQVCGILLYENIYISVGFLCCISVDRYLAVAHPFRFHQFRTLKAAVGVSVVIWAKELLTSIYFLMHEEVIEDENQHRVCFEHYPIQAWQRAINYYRFLVGFLFPICLLLASYQGILRAVRRSHGTQKSRKDQIQRLVLSTVVIFLACFLPYHVLLLVRSVWEASCDFAKGVFNAYHFSLLLTSFNCVADPVLYCFVSETTHRDLARLRGACLAFLTCSRTGRAREAYPLGAPEASGKSGAQGEEPELLTKLHPAFQTPNSPGSGGFPTGRLA

Data set [1] covers variants of B1. Kind of data set: cAMP reporter score (Enrich2 score, wild type = 0); higher = more signal; HEK293T, FACS bins.
The variants in data set [2] derive from B1. Kind of data set: surface expression score (Enrich2 score, wild type = 0); higher = more signal; HEK293T, FACS bins.

The least precise scores are not listed. The source holds two more conditions with little spread; they are left out. Names with del lack the residues named; names with ins carry added residues between the positions named. For some assays here: The concentration of ogerin is not given here.

Consider V123T, for which the cAMP reporter score in data set [1] (pH 5.5) was -1.23; in data set [1] (pH 6), -0.811; in data set [1] (pH 6, modulator: ogerin) it was -1.35; in data set [1] (pH 6.5, modulator: ogerin) it was -1.07. Also, the surface expression score in data set [2] is -0.528.
The matching figures for V123E: -2, -0.837, -1.66, -1.56 and -1.26.
The matching figures for V123R: -1.98, -2.11, -2.04, -1.45 and -2.82.
In the case of V123L, the cAMP reporter score was -0.227 in data set [1] (pH 5.5); -0.06 in data set [1] (pH 6); 0.272 in data set [1] (pH 6, modulator: ogerin). For the same variant, the surface expression score in data set [2] was -0.401.
Consider V123P, for which the cAMP reporter score is -0.951 in data set [1] (pH 5.5); -1.48 in data set [1] (pH 6); -1.96 in data set [1] (pH 6, modulator: ogerin); -1.75 in data set [1] (pH 6.5, modulator: ogerin). Also, the surface expression score in data set [2] is -2.93.
The corresponding values for V123A are -0.928, -0.38, -0.919, -0.884 and -0.723.
The matching figures for V123N: -2.47, -1.57, -1.51, -1.6 and -2.08.
V123W: the cAMP reporter score in data set [1] (pH 5.5) is -1.67; in data set [1] (pH 6), -1.53; in data set [1] (pH 6.5, modulator: ogerin), -1.88. Besides, the surface expression score in data set [2] came out at 0.012.
As to V123H, the cAMP reporter score in data set [1] (pH 5.5) is -1.12; in data set [1] (pH 6), 1.43; in data set [1] (pH 6, modulator: ogerin), -1.19; in data set [1] (pH 6.5, modulator: ogerin) it was -0.701. The surface expression score in data set [2] is -1.42.
V123M: the cAMP reporter score in data set [1] (pH 5.5) was -1.73; in data set [1] (pH 6, modulator: ogerin) it was -1; in data set [1] (pH 6.5, modulator: ogerin) it was -1.09. For the same variant, the surface expression score in data set [2] was -0.475.
As to S116_V117insGS, the cAMP reporter score in data set [1] (pH 5.5) was -2.12; in data set [1] (pH 6) it was -1.61; in data set [1] (pH 6, modulator: ogerin) it was -1.55; in data set [1] (pH 6.5, modulator: ogerin), -2.22.
With R119C, the cAMP reporter score in data set [1] (pH 5.5) is -1.26; in data set [1] (pH 6), -1.08; in data set [1] (pH 6, modulator: ogerin), -1.4; in data set [1] (pH 6.5, modulator: ogerin), -1.19. For the same variant, the surface expression score in data set [2] was -0.514.
The corresponding values for R119L are -1.39, -0.14, -1.14, -0.876 and -1.41.
For R119D, the cAMP reporter score in data set [1] (pH 5.5) was -1.56; in data set [1] (pH 6), -1.19; in data set [1] (pH 6.5, modulator: ogerin), -0.223.
With R119S, the cAMP reporter score was -2.71 in data set [1] (pH 5.5); -0.819 in data set [1] (pH 6); -0.738 in data set [1] (pH 6.5, modulator: ogerin). Besides, the surface expression score in data set [2] was -0.362.
For R119K, the cAMP reporter score is 0.703 in data set [1] (pH 5.5); -0.153 in data set [1] (pH 6); -0.38 in data set [1] (pH 6, modulator: ogerin); -0.866 in data set [1] (pH 6.5, modulator: ogerin). The surface expression score in data set [2] was -1.15.
The matching figures for R119M: -1.17, -0.605, -1.71, -1.04 and -0.317.
For the variant R119Q, the cAMP reporter score in data set [1] (pH 5.5) was -1.48; in data set [1] (pH 6), -1.32; in data set [1] (pH 6.5, modulator: ogerin), -1.25. For the same variant, the surface expression score in data set [2] was -0.544.
As to R119G, the cAMP reporter score is -0.485 in data set [1] (pH 5.5); -0.235 in data set [1] (pH 6); -1.52 in data set [1] (pH 6, modulator: ogerin); -0.393 in data set [1] (pH 6.5, modulator: ogerin). In addition, the surface expression score in data set [2] was 0.17.
Consider R119T, for which the cAMP reporter score in data set [1] (pH 5.5) was -1.26; in data set [1] (pH 6), -1.18; in data set [1] (pH 6, modulator: ogerin), -1.69; in data set [1] (pH 6.5, modulator: ogerin), -1.2. The surface expression score in data set [2] was -1.34.
The corresponding values for R119I are -1.32, -0.968, -2.3, -0.864 and -0.407.
Regarding R119E, the cAMP reporter score is -0.56 in data set [1] (pH 5.5); -0.67 in data set [1] (pH 6); -0.194 in data set [1] (pH 6.5, modulator: ogerin). Further, the surface expression score in data set [2] was -1.19.
For R119V, the cAMP reporter score in data set [1] (pH 5.5) is -2.68; in data set [1] (pH 6), -0.397; in data set [1] (pH 6, modulator: ogerin) it was -0.648. The surface expression score in data set [2] is -0.407.
For the variant R119H, the cAMP reporter score is -1.05 in data set [1] (pH 5.5); -1.79 in data set [1] (pH 6); -1.85 in data set [1] (pH 6, modulator: ogerin).
Consider R119Y, for which the cAMP reporter score is -0.908 in data set [1] (pH 5.5); -1.58 in data set [1] (pH 6, modulator: ogerin); -1.56 in data set [1] (pH 6.5, modulator: ogerin).
As to R119A, the cAMP reporter score in data set [1] (pH 5.5) is -0.248; in data set [1] (pH 6), -0.76; in data set [1] (pH 6, modulator: ogerin), -0.958; in data set [1] (pH 6.5, modulator: ogerin), -2.22. Also, in data set [2], the surface expression score was 0.683.
The corresponding values for R119P are -2.14, -1.05, -0.871, -1.46 and -2.13.
With R119W, the cAMP reporter score in data set [1] (pH 5.5) was -0.98; in data set [1] (pH 6), -0.697; in data set [1] (pH 6.5, modulator: ogerin), -0.461. For the same variant, the surface expression score in data set [2] was -2.63.
Take R119N: the cAMP reporter score in data set [1] (pH 5.5) is -0.609; in data set [1] (pH 6) it was -1.11; in data set [1] (pH 6, modulator: ogerin), -0.718; in data set [1] (pH 6.5, modulator: ogerin), -0.492. Besides, in data set [2], the surface expression score was -0.876.
The corresponding values for R119F are -0.413, -0.679, -0.543, -0.524 and -1.42.
The matching figures for Y120_L121insG: -2.02, -1.43, -1.5, -0.73 and -2.28.
R119_Y120insGS: the cAMP reporter score in data set [1] (pH 5.5) was -0.539; in data set [1] (pH 6) it was -0.35; in data set [1] (pH 6.5, modulator: ogerin), -0.265. Besides, the surface expression score in data set [2] is -2.47.
For the variant C113_I115del, the cAMP reporter score in data set [1] (pH 5.5) is -2.05; in data set [1] (pH 6) it was -1.54; in data set [1] (pH 6, modulator: ogerin) it was -2.03; in data set [1] (pH 6.5, modulator: ogerin), -1.46. Besides, the surface expression score in data set [2] was -2.91.
